Measurements taken from PubChem BioAssay AID485364 (National Center for Advancing Translational Sciences (NCATS), 2010).
The campaign covered roughly 360,000 compounds. About 11,000 (3.1%) were called active. This list was built around the results that the source calls inconclusive (neither active nor inactive); the mix of calls is not that of the screen. Calls come from the whole dose curve; as a rule, active = well fitted inhibition curve with a large enough effect; inconclusive = small, poorly fitted or top-dose-only effect; inactive = no such curve, though single readings can be large or run the other way. Potencies of inconclusive entries are left out as doubtful fits.

target: Schistosoma mansoni thioredoxin glutathione reductase (TGR) (UniProt Q962Y6); test: qHTS Assay for the Inhibitors of Schistosoma Mansoni Peroxiredoxins; conditions: purified TGR, DTNB reduction, TNB absorbance 405 nm; series mostly up to 114 µM; note: nearly all actives have a fitted effect of over 60% in size
How it was run: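 First, TGR (20 nM dispensed) and NADPH were mixed with compound. Second, a 15 min room-temperature incubation followed. Third, further NADPH and then DTNB were added to start the reaction. Finally, TNB absorbance was monitored kinetically.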
Potency is the fitted concentration of half-maximal effect; tags give direction and shape of the fitted curve.

Structure (SMILES)	Potency
COc1ccccc1N1CCN(S(=O)(=O)c2c[nH]c(=O)[nH]c2=O)CC1	inconclusive [inhibitor, partial curve]
O=c1oc2c(CN3CCN(CCO)CC3)c(O)ccc2cc1-c1ccccn1	inconclusive [inhibitor, partial curve]
COc1ccc(OC2C(=O)N(c3ccc(F)cc3)C2c2ccc(OC)c(OC)c2)cc1 (centres undefined)	inactive
O=C(NC1CCCCC1)c1ccc2c(c1)sc1nc(-c3ccccc3)cn12	inactive
Cc1occc1C(=O)N(C)Cc1nc(-c2ccc(Cl)cc2)no1	inconclusive [inhibitor, partial curve]
CCc1cc(-c2[nH]ncc2-c2nc3ccccc3n2C)c(O)cc1O	inactive
Cc1ccc(/C=C/C(=O)OCC(=O)Nc2ccc3[nH]c(=O)[nH]c3c2)o1	inconclusive [inhibitor, partial curve]
COc1ccccc1-c1nnc2sc(COc3ccc(F)cc3)nn12	inactive
C#CCOCCOCCOCCNc1nc(N2CCN(C(=O)[C@H](CCCCN)n3cc([C@@H](N)C(C)CC)nn3)CC2)nc(N2CCN(C(=O)[C@H](Cc3ccc(O)cc3)n3cc([C@@H](N)C(C)CC)nn3)CC2)n1 (some centres undefined)	inconclusive [inhibitor, partial curve]
O=Cc1ccc(OC(=O)C2CC(=O)N(c3ccc(F)cc3)C2)cc1 (centres undefined)	inconclusive [inhibitor, partial curve]
CCOC(=O)C(C)Sc1nc(-c2cccs2)ccc1C#N (centres undefined)	inconclusive [inhibitor, partial curve]
Cc1ccc(S(=O)(=O)N2CCOC2CNC(=O)C(=O)NCc2ccncc2)cc1 (centres undefined)	inconclusive [inhibitor, single point]
CCN(CC)c1ccc(NS(=O)(=O)c2ccc3c(c2)CCCN3C(C)=O)c(C)c1	inconclusive [inhibitor, partial curve]
CC(C)C[C@H](NC(=O)C1CC(=O)N(c2ccc3c(c2)OCO3)C1)C(=O)NCc1ccco1 (some centres undefined)	inconclusive [inhibitor, partial curve]
O=C(N/N=C/C=C\c1ccco1)c1cccnc1	active: 25.1 µM
CCN1C(=O)N[C@H](c2ccc(Br)cc2)C(C(C)=O)=C1C	inconclusive [inhibitor, partial curve]
O=C(CS(=O)c1ccc(C(F)(F)F)cc1[N+](=O)[O-])Oc1ccc(Cl)cc1 (centres undefined)	inconclusive [inhibitor, partial curve, poor fit]
Nc1c(C(=O)Nc2ccc3c(c2)OCCO3)nnn1CCc1ccccc1	inactive
COc1cccc(C(c2c(C)[nH]n(-c3ccccc3)c2=O)c2c(C)[nH]n(-c3ccccc3)c2=O)c1O	inconclusive [inhibitor, partial curve, poor fit]
O=C(Nc1cc([N+](=O)[O-])ccc1N1CCCC1)c1ccco1	inconclusive [inhibitor, partial curve]
O=S(=O)(Nc1cc(F)ccc1F)c1ccc2[nH]c3c(c2c1)CCCCC3	inactive
Nc1c(C(=O)N/N=C/c2cccnc2)oc2nc(-c3ccco3)cc(-c3ccco3)c12	active: 12.6 µM
O=C(CSc1nnc(-c2ccncc2)n1Cc1ccco1)OC1CCCCC1	active: 39.8 µM

Structure (SMILES)	Potency
Cc1ccc(C)c(NC(=O)C2C3C=CC(O3)C2C(=O)O)c1 (centres undefined)	active: 44.7 µM
COc1cc(C(C(=O)NCC2CCCO2)N(C(=O)Cn2nnc3ccccc32)c2ccc(OC)c(OC)c2)ccc1O (centres undefined)	active: 44.7 µM
CCOc1cc(/C=C2\N=C(C)OC2=O)cc(Br)c1OCC(=O)OC	active: 25.1 µM
Cc1cc(C)n2nc(/C(C#N)=C/c3ccccn3)c(C#N)c2n1	inconclusive [inhibitor, partial curve]
N#C/C(=C\c1cccnc1)C(=O)Nc1ccc(O)cc1F	inconclusive [inhibitor, full curve]
CCC(=O)C1=C(c2ccc(OC)c(OC)c2)N(C(=O)CC)n2c(CC)nnc2S1	inconclusive [inhibitor, single point]
CCc1nnc(SCc2ccc(OC)cc2)c2cc3sc(C)cc3n12	inconclusive [inhibitor, single point]
Cc1cccc(NC(=O)c2cc3ccccc3o2)c1	inactive
Cc1cccc(OCC(=O)N/N=C/C=C/c2ccco2)c1	active: 39.8 µM
O=C(COc1cc(Cl)c(Cl)cc1Cl)Nc1cccc(O)c1	inactive
Cc1ccccc1S(=O)(=O)Cc1ccc(C(=O)NCCCOC(C)C)o1	inconclusive [inhibitor, partial curve]
Cc1ccc(C(=O)/C=C/C(=O)O)cc1	active: 2.51 µM
CC1CN(S(=O)(=O)c2cccc(C(=O)OCC(=O)Nc3ccc4c(c3)OCO4)c2)CC(C)O1 (centres undefined)	inconclusive [inhibitor, partial curve]
COc1ccc(NC(=O)CN2CCN(C(=O)c3ccco3)CC2)c(OC)c1	inactive
CC(=O)n1nc(-c2ccco2)nc1N	inconclusive [inhibitor, partial curve]
CCN(CCCNC(=O)C1CCCN(S(=O)(=O)c2cnc[nH]2)C1)c1ccccc1 (centres undefined)	inconclusive [inhibitor, partial curve, poor fit]
CCCCNC(=O)C1CCC(CNS(=O)(=O)c2ccc(C)cc2)CC1 (centres undefined)	inactive
O=C(CN1CCN(C(=O)c2ccco2)CC1)N1CCc2[nH]c3ccccc3c2C1	active: 20 µM
COc1cc(N2C(=O)c3ccccc3C2=O)c(Cl)cc1C(=O)OCC(=O)NCc1ccco1	inconclusive [inhibitor, partial curve]
O=C(Nc1ccon1)c1nc[nH]c1C(=O)NCc1ccccc1	inconclusive [inhibitor, single point]
CCCCOC(=O)C1[C@H]2C(=O)N(CCc3ccccc3)C[C@]23C=C[C@H]1O3 (some centres undefined)	inconclusive [inhibitor, partial curve]
CCCCCCNC(=O)N[C@@H](Cc1ccc(O)cc1)C(=O)NCCC[C@H]1CN2C(=NC[C@H]2C)N1CC1CCC1	inconclusive [inhibitor, single point]
CCCCCCOc1ccc(N2C(=O)CC(N3CCN(CCN=CC4=C(O)CC(C)(C)CC4=O)CC3)C2=O)cc1 (centres undefined)	inconclusive [inhibitor, partial curve]

Structure (SMILES)	Potency
CC(=O)Nc1ccc(N=NN2CCOCC2)cc1	active: 8.91 µM
COc1cc(NC(=O)CN2c3ccccc3CC2C)cc(OC)c1OC (centres undefined)	inconclusive [inhibitor, partial curve]
O=C(NC(=S)NC1CCCCC1)c1ccc(F)cc1	active: 28.2 µM
CCN1CCN(C(c2ccc(SC)cc2)c2c(O)cc(C)n(Cc3ccco3)c2=O)CC1 (centres undefined)	active: 3.55 µM
CCOc1ccc2nc(N3CCCC(C(=O)Nc4ccc(OC)c(Cl)c4)C3)sc2c1 (centres undefined)	inactive
CC1Cc2ccccc2N1S(=O)(=O)c1cccc(C(=O)N2Cc3ccccc3CC2C(N)=O)c1 (centres undefined)	inactive
CC(C)=C(NC(=O)c1ccccc1)C(=O)NCCc1nc2ccccc2[nH]1	inactive
CCOc1cc(CNS(=O)(=O)c2cn(C)cn2)cc(OCC)c1OCC	inconclusive [inhibitor, single point]
CC(Sc1nc2ccc(C(=O)c3ccccc3)cc2[nH]1)C(=O)O (centres undefined)	inactive
C=CCn1c(O)c(C(C)=NCCN2CCOCC2)c(=O)[nH]c1=O	inconclusive [inhibitor, single point]
Cc1ccc(Cn2c(SCC(=O)NCc3ccccc3Cl)nc3ccsc3c2=O)cc1	inactive
CCOC(=O)c1cc2c(=O)n3ccccc3nc2n(Cc2ccco2)c1=NC(=O)c1cccc(F)c1	inconclusive [inhibitor, partial curve, poor fit]
COc1cc(NC(=O)CCCc2nnc3n(CC(C)C)c(=O)c4sccc4n23)cc(OC)c1	inactive
COc1ccc(OC)c(C2C3CN(C(C)C)CC=C3C(C#N)=C(N)C2(C#N)C#N)c1 (centres undefined)	inconclusive [inhibitor, single point]
O=C(O)c1ccc(C(=O)c2ccc3c(c2)C(=O)N(Cc2ccco2)C3=O)cc1	inconclusive [inhibitor, partial curve]
Cc1ccc2cc(C3C(C#N)=C(N)Oc4c3ccc3cccnc43)c(=O)[nH]c2c1 (centres undefined)	active: 11.2 µM
CCCCc1nnc(NC(=O)COc2ccc3c(C)cc(=O)oc3c2)s1	inconclusive [inhibitor, full curve, poor fit]
N#Cc1ccc(CC(C(=O)O)N2Cc3ccccc3C2=O)cc1 (centres undefined)	inconclusive [inhibitor, partial curve]
O=C1/C(=C\c2ccco2)SC(=S)N1c1ccccc1	inconclusive [inhibitor, partial curve]
CCOc1cc(CNc2ccc(N3CCCC3)cc2)cc(Cl)c1OC	active: 25.1 µM
O=C(Nc1ccc(-c2nc3ccccc3s2)c(OC(=O)c2ccccc2)c1)c1ccccc1	inactive
CCC1(C)NC(=O)N(CC(=O)Nc2sc3c(c2C(N)=O)CCC3)C1=O (centres undefined)	inconclusive [inhibitor, partial curve]
Cc1cc(/C=C2\C(=O)NC(=O)N(Cc3ccccc3)C2=O)c(C)n1C1CC1	inconclusive [inhibitor, full curve]
